Measurements from PMC12670160, “A drug-repurposing screen of FDA- and EMA-approved drugs identifies two NF-κB inhibitors active against eumycetoma” (Journal of Antimicrobial Chemotherapy, 2025).
Structures can show the parent of a compound that is named as a salt. Most of the strong results are listed elsewhere, so they are rarer here than in the full data.

Test system: M. mycetomatis strain mm55
Settings: primary screen, metabolic activity vs growth control; 96 h, 2 µM; inhibitor

SMILES | % viability [%]
CCCn1c(=O)c(C)cn2nc(N)nc12 [ONC0000868, ici63197] | 60.66
Cc1cc(/C=C/c2ccc3cc(N(C)C)ccc3[n+]2C)c(C)n1-c1ccccc1.Cc1cc(/C=C/c2ccc3cc(N(C)C)ccc3[n+]2C)c(C)n1-c1ccccc1 [ONC0003722, pyrvinium] | 106.5
O=C(c1ccc(F)cc1)N1CCC[C@H](c2nc(-c3ccc(F)cc3)no2)C1 [ONC0005279, adx47273] | 129
CCC(C)(CN(C)C)OC(=O)c1ccccc1 (centres unmarked) [ONC0002307, amyleine] | 77.71
NCCCC(N)C(=O)O (centres unmarked) [ONC0004288, ornithine hydrochloride] | 70.55
Nc1nc(N)c2nc(-c3cccc(O)c3)cnc2n1 [ONC0005260, tg 100713] | 138.1
Cc1cc(C)n(-c2cccc([C@H](CC(=O)O)CN3CC[C@@H](CCc4ccc5c(n4)NCCC5)C3)c2)n1 [ONC0001238, gsk 3008348 hydrochloride] | 66.6
COc1cc2c(cc1OC)C(=O)C(CC1CCN(Cc3ccccc3)CC1)C2 (centres unmarked) [ONC0004266, donepezil hydrochloride] | 67.34
C[C@@H]1C(SC2CN(C3=NCCS3)C2)=C(C(=O)OCOC(=O)C(C)(C)C)N2C(=O)[C@H]([C@@H](C)O)[C@H]12 [ONC0004883, tebipenem pivoxil l084] | 96.39
N=C(N)NCCN1CCCCCCC1 [ONC0000440, guanethidine monosulfate] | 94
Nc1ccc(C(=O)Nc2cccc(-c3nc(N4CCOCC4)c4oc5ncccc5c4n3)c2)cn1 [ONC0004526, ym201636] | 65.68
C[C@@H]1CN(Cc2ccc(F)cc2)CCN1C(=O)COc1ccc(Cl)cc1NC(N)=O [ONC0000713, bx471] | 73.97
COC(=O)C1=C(C)NC(C)=C(C(=O)OC)C1c1ccccc1[N+](=O)[O-] [ONC0000507, nifedipine] | 62.38
CCn1cc(C(=O)O)c(=O)c2cc(F)c(N3CCN(C)CC3)cc21 [ONC0004198, pefloxacin mesylate] | 80.86
C[C@@H]1C[C@H]2[C@@H]3C[C@H](F)C4=CC(=O)C=C[C@]4(C)[C@@]3(F)[C@@H](O)C[C@]2(C)[C@@]1(O)C(=O)CO [ONC0004574, flumethasone] | 73.58
O=C1OCCN1/N=C/c1ccc([N+](=O)[O-])o1 [ONC0000487, furazolidone] | 68.53
Cc1ccc(CCCO)c(NCc2ccc3nc(NCCCN4CCOCC4)n(Cc4nc(C)ccc4O)c3c2)c1 [ONC0002062, tmc353121] | 76.36
Cc1c(NC(=O)N2CCOCC2)ccc2c1c1ccccc1n2C(C)C [ONC0004300, npy5ra972] | 97.63
CCNC(=O)C[C@@H]1N=C(c2ccc(Cl)cc2)c2cc(OC)ccc2-n2c(C)nnc21 [ONC0005049, ibet762] | 80.17
Cc1ccc(-c2ccc(F)cc2COc2ccc(CCC(=O)O)cc2)cc1 [ONC0000358, tug891] | 99.08
N#Cc1ccc(-c2ccc(S(=O)(=O)Nc3cccc(N)n3)cc2)cc1 [ONC0001785, pf915275] | 124
Nc1nc2ccc(OC(F)(F)F)cc2s1 [ONC0003910, riluzole] | 84.65
CCC[C@@H]1C[C@@H](C(=O)N[C@@H]([C@H]2O[C@H](SC)[C@H](O)[C@@H](O)[C@H]2O)[C@H](C)Cl)N(C)C1 [ONC0000785, clindamycin hydrochloride] | 76.03
